Results on one molecule are retold here after patent US20250186613A1 (The Trustees of the University of Pennsylvania, priority 2022, published 2025).

The data set deals with gut surface area. Kind of data set: Dosage study in NHPs. Format: in vivo, rhesus macaques. As to the method:
In this study, we examine expression of human GLP-2 in nonhuman primates (NHPs; i.e., rhesus macaques).
Necropsy is performed at day 60.

B1: hGLP2.Fc: fusion protein: GLP2 with A2G substitution, thrombin leader, and IgG4 Fc fusion (SEQ ID NO: 13) (protein)
chain: MAHVRGLQLPGCLALAALCSLVHSQHVFLAPQQARSLLQRVRRHGDGSFSDEMNTILDNLAARDFINWLIQTKITDGGGGGGSGGGGSGGGGSA[left out - human IgG4 Fc with S228P F234A L235A (EU numbers)]
Take B1: under “high dose 1×10^13 GC/kg IM, AAVrh91.CB7.CI.hGLP-2-Fc.rBG, FIG. 8B”, the “gut surface area (serum citrulline biomarker)” value is listed as “substantial increase in gut surface area”. Further, the “anti-GLP-2-Fc antibody in NHP serum” value (serum at 1:100 dilution, FIG. 8C) is reported as “anti-GLP-2-Fc antibodies reduced its expression”.
